# Data taken from the RNAGym collection of RNA variant scans (doi:10.7554/elife.90254).
# The source gives no read counts; variants with many changes may rest on few reads.
# B1: LINE1-mini (parent)
# chain: GGCAGAGCUCAACACAGCGUGGCAAAGUGGCUGUGGCUAGACUGCC
# Variants of: B1
# Assay: self-cleavage, relative activity (ratio to wild type); higher = more cleavage; in vitro, sequencing; the parent is a self-cleaving ribozyme
row,Variant,self-cleavage
1,GGCAGAGCUUAACACAGCGCGGCAAAGUGGCUUUGGCUAGACUGCC [C10U U20C G33U],0.02
2,GGCAGAGCUUAACACAGCGCGGCAAAGUGGCUGUGGCGAGACUGCC [C10U U20C U38G],0.01
3,GGCAGAGCUUAACACAGCGGGGCAAAGUGGCUAUGGCUAGACUGCC [C10U U20G G33A],0.05
4,GGCAGAGCUUAACACAGCGGGGCAAAGUGGCUUUGGCUAGACUGCC [C10U U20G G33U],0.07
5,GGCAGAGCUUAACACAGCGUGGCAAAGAGGCUGUGGUUAAACUGCC [C10U U28A C37U G40A],0.03
6,GGCAGAGCUUAACACAGCGUGGCAAAGAGGCUUUGGCUAGACUGCC [C10U U28A G33U],0.02
7,GGCAGAGCUUAACACAGCGUGGCAAAGCGGCUGUGGCUAUACUGAC [C10U U28C G40U C45A],0.03
8,GGCAGAGCUUAACACAGCGUGGCAAAGCGGCUGUGGCUAGACUACC [C10U U28C G44A],0.06
9,GGCAGAGCUUAACACAGCGUGGCAAAGGGGGUGUGGCUAGAUUGCC [C10U U28G C31G C42U],0.05
10,GGCAGAGCUUAACACAGCGUGGCAAAGGGGCUGGGGCUAUACUGAC [C10U U28G U34G G40U C45A],0.04
11,GGCAGAGCUUAACACAGCGUGGCAAAGUGGCCCUGGCUAGACUGCC [C10U U32C G33C],0.04
12,GGCAGAGCUUAACACAGCGUGGCAAAGUGGCCGUGCCUACAGUGCC [C10U U32C G36C G40C C42G],0.03
13,GGCAGAGCUUAACACAGCGUGGCAAAGUGGCGGUGGCUAGACUGCA [C10U U32G C46A],0.11
14,GGCAGAGCUUAACACAGCGUGGCAAAGUGGCGGUGGCUAGACUGCU [C10U U32G C46U],0.04
15,GGCAGAGCUUAACACAGCGUGGCAAAGUGGCGGUGGCUAGACUUCC [C10U U32G G44U],0.09
16,GGCAGAGCUUAACACAGCGUGGCAAAGUGGCGGUGGCCAGACUGAC [C10U U32G U38C C45A],0.03
17,GGCAGAGCUUAACACAGCGUGGCAAAGUGGCUGAGGCUAGAUUGCC [C10U U34A C42U],0.03
18,GGCAGAGCUUAACACAGCGUGGCAAAGUGGCUGAGGCUAGACCGCC [C10U U34A U43C],0.02
19,GGCAGAGCUUAACACAGCGUGGCAAAGUGGCUGUGGCAAGGCUACC [C10U U38A A41G G44A],0.03

row,Variant,self-cleavage
1,GGCAGAGCUUAACACAGCGUGGCAAAGUGGCUGUGGCAAGAUUGCC [C10U U38A C42U],0.04
2,GGCAGAGCUUAACACAGCGUGGCAAAGUGGCUGUGGCAAGACUGCU [C10U U38A C46U],0.03
3,GGCAGAGCUUAACACAGCGUGGCAAAGUGGCUGUGGCCAGACUCCC [C10U U38C G44C],0.24
4,GGCAGAGCUUAACACAGCGUGGCAAAGUGGCUGUGGCGAGUCUGCC [C10U U38G A41U],0.01
5,GGCAGAGCUUAACACAGCGUGGCAAAGUGGCUGUGGCUAGACCACC [C10U U43C G44A],0.01
6,GGCAGAGCUCCCCACAGCGUGGCAUAGUGUCUGUGGCUAGACUGCC [A11C A12C A25U G30U],0.03
7,GGCAGAGCUCCCCACAGCGUGGCAAAGUGGCUGUGGGUAGACUGCC [A11C A12C C37G],0.02
8,GGCAGAGCUCCCCACAUCGUGGCAAAGCGGCUGUGGCUAGACUGCU [A11C A12C G17U U28C C46U],0.01
9,GGCAGAGCUCCCCACAGCGUCGCAAAGUGGCUGUGGCGAGACUGCC [A11C A12C G21C U38G],0.01
10,GGCAGAGCUCCCCACAGCGUUGCAAAGUGGCUGUGGCUAGACUGCC [A11C A12C G21U],0.01
11,GGCAGAGCUCCGCAAAGCGUGGCAAAGUGGCUGUGGCUAGACUGCC [A11C A12G C15A],0
12,GGCAGAGCUCCGCAUAGGGUGGCACAGUGGCUGUGGCUAGACUGCC [A11C A12G C15U C18G A25C],0
13,GGCAGAGCUCCGCACAGCAUGGCAAAGAUGCUGUGGCUAGACUGCC [A11C A12G G19A U28A G29U],0
14,GGCAGAGCUCCGCACAGCGUUGCAAAGUGGCUGUGGCUAGACUGCC [A11C A12G G21U],0.01
15,GGCAGAGCUCCGCACAGCGUGGCAAAGCGGCUGUGGCUAGACCGCC [A11C A12G U28C U43C],0
16,GGCAGAGCUCCGCACAGCGUGGCAAAGUGGCUGUGGCCAGACUGCC [A11C A12G U38C],0.02
17,GGCAGAGCUCCGCACAGCGUGGCAAAGUGGCUGUGGCUAGACAGCC [A11C A12G U43A],0.07
18,GGCAGAGCUCCGCACAGCGUGGCAAAGUGGCUGUGGCUAGACCGCC [A11C A12G U43C],0.05
19,GGCAGAGCUCCUCUCAGCGUGGCAAAGUGGCUCUGGCUAGACUGCC [A11C A12U A14U G33C],0

row,Variant,self-cleavage
1,GGCAGAGCUCCUCACUGAGUGGCAUAGUUGCUGUGGCUAGACUGCC [A11C A12U A16U C18A A25U G29U],0.01
2,GGCAGAGCUCCUCACAGCGUGGCCAAGUGGCUGUGGCUAGACUGCC [A11C A12U A24C],0.02
3,GGCAGAGCUCCUCACAGCGUGGCAACGUGGCUGUGGCUAGACUGCC [A11C A12U A26C],0.02
4,GGCAGAGCUCCUCACAGCGUGGCAAUGUGGCUGUGGCUAGACUGCC [A11C A12U A26U],0.08
5,GGCAGAGCUCCUCACAGAGUGGCAAAGUGGCUGUGGCUGGAAUGCC [A11C A12U C18A A39G C42A],0
6,GGCAGAGCUCCUCACAGCGUGGCAAAGUGGCUGUGGCUAGAAUGCU [A11C A12U C42A C46U],0.01
7,GGCAGAGCUCCUCACAGCGUGGCAAAAUGGCUGUGCCUAGACUGCC [A11C A12U G27A G36C],0.06
8,GGCAGAGCUCCUCACAGCGUGGCAAAGUGACUGUGGCUAGACUGCC [A11C A12U G30A],0.08
9,GGCAGAGCUCCACCCAGCGUGGCUAACUGGCGGUGGUUAGACUGCC [A11C A14C A24U G27C U32G C37U],0
10,GGCAGAGCUCCACCCAGCGUGGGAAAGUGGCUCUGGCUAGACUGCC [A11C A14C C23G G33C],0
11,GGCAGAGCUCCACCCAACGUGGCAAAGUGGCUGUGGCUAGACUUCC [A11C A14C G17A G44U],0.01
12,GGCAGAGCUCCACCCAGCGUGGCAAAGUGGCUUUGGCUAGACUGCC [A11C A14C G33U],0.02
13,GGCAGAGCUCCACGCAGCGUGGCAAAGUGGCUGUGGCUUGACUGCC [A11C A14G A39U],0.02
14,GGCAGAGCUCCACGCAACGCGGCAAAAUGGAUGUGGCUAGACUGCA [A11C A14G G17A U20C G27A C31A C46A],0
15,GGCAGAGCUCCACGCAGCGAGGCAAAGUGGCUGUGGCUAGACUGCC [A11C A14G U20A],0.02
16,GGCAGAGCUCCACUCAGCGUGGCAAGGUGGCAUUGGCAAGACUGCC [A11C A14U A26G U32A G33U U38A],0.01
17,GGCAGAGCUCCACUCAGCGUGGCAAAGUGGCUGUGGCUAGACUGCA [A11C A14U C46A],0.06
18,GGCAGAGCUCCACUCAGCAUGGCCAAGUGGCUGUGGCUAGACUGCC [A11C A14U G19A A24C],0
